About 150 (0.041%) of roughly 370,000 compounds were called active. This list was built around the results that the source calls inconclusive (neither active nor inactive); the mix of calls is not that of the screen. Calls follow the shape of the dose curve; as a rule, active = well fitted inhibition curve with a large enough effect; inconclusive = small, poorly fitted or top-dose-only effect; inactive = flat fitted curve, though single readings scatter. No potency is given beside an inconclusive call; the fits are too rough.
target: Beta-lactamase (Escherichia coli (strain K12)) (UniProt P00811); assay: qHTS Inhibitors of AmpC Beta-Lactamase (assay with detergent); conditions: AmpC hydrolysis of nitrocefin, absorbance 480 nm, 0.01% Triton; series mostly up to 114 µM; also: nearly all actives have a fitted effect of over 25% in size
UniProt P00811, sequence (P00811 whole entry, looked up): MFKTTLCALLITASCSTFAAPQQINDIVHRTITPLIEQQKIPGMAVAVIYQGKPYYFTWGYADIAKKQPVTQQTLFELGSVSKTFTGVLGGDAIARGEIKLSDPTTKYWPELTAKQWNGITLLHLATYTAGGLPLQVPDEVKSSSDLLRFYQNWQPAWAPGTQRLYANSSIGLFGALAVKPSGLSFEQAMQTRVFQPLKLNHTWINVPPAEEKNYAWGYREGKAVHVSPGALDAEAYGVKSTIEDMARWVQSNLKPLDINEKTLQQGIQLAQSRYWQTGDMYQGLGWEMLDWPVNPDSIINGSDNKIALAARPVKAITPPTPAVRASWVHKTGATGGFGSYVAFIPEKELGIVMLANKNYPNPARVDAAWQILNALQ
Outline: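 20 mM phosphate pH 7.0 + 0.01% (detergent screen) or 0.0001% Triton X-100; 5.3 nM AmpC reagent; cpd preinc 15 min RT; nitrocefin (800 uM stock) to start; A480 q20 s × 4 min; Activity was normalised to no-enzyme and no-compound control wells.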
Potency is read from the fitted curve at half-maximal effect; tags tell the direction and shape of the fitted curve.

SMILES | Potency
COc1ccc(S(=O)(=O)N2c3ccccc3OCC2C)cc1 (stereo not drawn) | inconclusive [inhibitor, full curve]
COc1cc(NC(=O)c2cc(=O)[nH]c3ccc(S(=O)(=O)N4CCOCC4)cc23)cc(OC)c1 | inconclusive [inhibitor, single point]
Cc1ccc(S(=O)(=O)n2c(C)nc3cc(C)ccc32)cc1 | inactive
COc1ccc(-n2c(CCc3ccccc3)nnc2SCC(=O)c2ccc(Cl)cc2)cc1 | inconclusive [inhibitor, single point]
CSCCC(NC(=O)c1ccc(Cl)cc1Cl)C(=O)NCc1ccncc1 (stereo not drawn) | inactive
O=C(Cn1c(-c2cccs2)cc2ccccc21)NCc1ccccc1Br | inconclusive [inhibitor, partial curve, poor fit]
CCCOc1ccccc1C1NC(=O)NC(C)=C1C(=O)OCCOC(C)C (stereo not drawn) | inconclusive [inhibitor, full curve]
CSCCCN1CC[C@@H](N2CCN(c3ccccc3F)CC2)[C@H](O)C1 | inconclusive [inhibitor, full curve, poor fit]
CCc1ccc(C2CC(c3cccc(Cl)c3)n3nc(N)nc3N2)cc1 (stereo not drawn) | inconclusive [inhibitor, full curve, poor fit]
CNC(=O)NC(=O)Cn1cnc2sc(-c3ccccc3)cc2c1=O | inactive
Cc1nn(Cc2ccccc2)c(C)c1C=C1C(=O)NC(=O)NC1=O | inactive
Cc1ccccc1CNC(=O)c1ccccc1N | inconclusive [inhibitor, full curve, poor fit]
O=C(Cn1c(=O)n(Cc2ccc(C(=O)NCc3ccccc3Cl)cc2)c(=O)c2ccccc21)Nc1ccc(F)c(Cl)c1 | inactive
COC(=O)C/C=C/[C@@H](C)[C@@H](/C=N/OC[C@H]1O[C@H](c2ccccc2)C=C[C@@H]1Oc1ccc(OC)cc1)OC | inconclusive [inhibitor, partial curve, poor fit]
O=C(NNC(=O)c1cc(-c2cccnc2)nc2ccccc12)Nc1ccc(Cl)cc1 | inactive
O=C(CN(C1CC1)S(=O)(=O)c1ccc(S(=O)(=O)N2CCCCCC2)cc1)Nc1ccccc1 | inconclusive [inhibitor, partial curve, poor fit]
COc1ccc(NC(=O)NNS(=O)(=O)c2ccc(Br)cc2)cc1 | inconclusive [inhibitor, partial curve, poor fit]
COc1cccc(OC)c1NC(=O)Cn1nc(C)c2ccccc2c1=O | inconclusive [inhibitor, partial curve, poor fit]
Cc1ccc(NC(=S)N/N=C/c2ccc([N+](=O)[O-])s2)cc1 | inconclusive [inhibitor, partial curve]
COc1cc(/C=N/OCC(=O)Nc2cc(C)on2)ccc1OCc1ccccc1 | inactive
COc1cccc2c1C(=O)O/C2=C/c1ccc2c(c1)OCO2 | inactive
COc1ccccc1NC(=O)C1=C(C)NC(=O)NC1c1ccc(C)s1 (stereo not drawn) | inconclusive [inhibitor, full curve, poor fit]

SMILES | Potency
O=C(NCCN1CCC(Cc2ccccc2)CC1)C1CCCN(S(=O)(=O)c2cnc[nH]2)C1 (stereo not drawn) | inconclusive [inhibitor, partial curve, poor fit]
CCc1nc(SCc2ccc([N+](=O)[O-])cc2)n[nH]1 | inconclusive [inhibitor, full curve, poor fit]
CCCN1CCC(N(C)CCc2ccc(OC)c(OC)c2)CC1 | inconclusive [inhibitor, full curve]
FC(F)(F)c1cc(-c2ccc(Cl)cc2)nc(NCc2cccnc2)n1 | inactive
Cc1ccc2c(Cl)cc(Cl)c(OCC(=O)NC(=O)NCc3ccco3)c2n1 | inconclusive [inhibitor, full curve, poor fit]
Oc1ccc(-c2c(C3=CCCCC3)sc3ccccc23)cc1 | inconclusive [inhibitor, full curve, poor fit]
COc1ccc(N2C(=O)/C(=C/c3ccco3)C(=O)NC2=S)cc1 | inconclusive [inhibitor, partial curve]
O=C(Nc1ccc(OC(F)(F)F)cc1)c1ccc2nccnc2c1 | inconclusive [inhibitor, full curve, poor fit]
COc1ccc(Cc2nc3ccc(S(=O)(=O)N4CCOCC4)cc3[nH]2)cc1OC | inconclusive [inhibitor, full curve, poor fit]
COc1ccc2cc3c(N)nn(C(=O)c4ccc(Cl)c([N+](=O)[O-])c4)c3nc2c1 | inconclusive [inhibitor, partial curve, poor fit]
CN(CCOc1ccccc1)C(=O)c1cc(S(=O)(=O)N2CCOCC2)ccc1Cl | inconclusive [inhibitor, full curve]
CCOC(=O)c1c(S(=O)(=O)N2CCC(C(=O)NCc3ccccc3OC)CC2)c(C)n(C)c1C | inactive
Cc1ccc(Nc2nc(N3CCOCC3)nc(N3CCOCC3)n2)cc1 | inactive
c1cc2c(cc1Cn1cnnn1)OCO2 | inconclusive [inhibitor, partial curve, poor fit]
COc1cccc(Oc2nccc(N(C)C)c2C#N)c1 | inactive
Cc1nc(N)c(C#N)c(-c2ccccc2Cl)c1C | inconclusive [inhibitor, full curve]
Cn1c(SCC(=O)OC2CCCCC2)nnc1-c1ccc2c(c1)OCO2 | inconclusive [inhibitor, full curve, poor fit]
O=C(Cc1ccc(S(=O)(=O)N2CCCCC2)s1)Nc1cccc2ccccc12 | inconclusive [inhibitor, single point]
Cc1ccccc1N=C(NO)c1nonc1N | inactive
Cc1cc(N2CCOCC2)n2ncc(-c3ccccc3)c2n1 | inactive
O=c1c2ccccc2nc(-c2ccco2)n1-c1ccccn1 | inconclusive [inhibitor, full curve, poor fit]

— PubChem BioAssay AID485294 (National Center for Advancing Translational Sciences (NCATS), 2010)
